Test results as given in the supplement of paper PMC4967469.

Experiments:
Test in all cases: Viability of human cancer cell lines after 72 h of drug (GDSC screen)
[1] = compound: C=CC(=O)Nc1cc(NC(=O)c2ccc(C)c(NC(=O)c3ccno3)c2)cc(C(F)(F)F)c1 [QL-XI-92]; conditions: top dose 10.24 µM; top dose inferred
Description: (§1)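 Human cancer cell lines in 384-well plates, medium with 10% serum, drug for 72 h over a 256-fold dose range (nine 2-fold or five 4-fold steps up to the top dose). Adherent lines were fixed and stained with the nucleic acid dye Syto60, suspension lines read with resazurin; signal relative to control wells, capped at 0 and 100%. One two-parameter sigmoid per drug and line, fitted in a mixed model over all curves with the slope shared within a line.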

[2] = compound: CCC1=C[C@@H]2CN(C1)Cc1c([nH]c3ccccc13)[C@@](C(=O)OC)(c1cc3c(cc1OC)N(C)[C@H]1[C@@](O)(C(=O)OC)[C@H](OC(C)=O)[C@]4(CC)C=CCN5CC[C@]31[C@@H]54)C2 [Vinorelbine]; conditions: top dose 0.064 µM; top dose inferred
Description: as §1

[3] = compound: CNCc1ccc(-c2[nH]c3cc(F)cc4c3c2CCNC4=O)cc1 [AG-014699]; conditions: top dose 5 µM; top dose inferred
Description: as §1

[4] = compound: COc1cc2ncnc(Nc3ccc(F)c(Cl)c3)c2cc1OCCCN1CCOCC1 [Gefitinib]; conditions: top dose 0.5 µM
Description: as §1

[5] = compound: O=c1cc(CN2CCOCC2)occ1OCCCCCSc1ccnc2cc(C(F)(F)F)ccc12 [EHT 1864]; conditions: top dose 10 µM; top dose inferred
Description: as §1

[6] = compound: O=c1cc(N2CCOCC2)oc2c(-c3cccc4c3sc3ccccc34)cccc12 [NU-7441]; conditions: top dose 2 µM; top dose inferred
Description: as §1

[7] = compound: COc1cc2nccc(Oc3ccc(NC(=O)C4(C(=O)Nc5ccc(F)cc5)CC4)cc3)c2cc1OC [XL-184]; conditions: top dose 5.12 µM; top dose inferred
Description: as §1

[8] = compound: COc1cc2ncnc(Nc3cc(Br)c(O)c(Br)c3)c2cc1OC [WHI-P97]; conditions: top dose 10.24 µM; top dose inferred
Description: as §1

[9] = compound: N=C(N)NC(=N)NCCc1ccccc1 [Phenformin]; conditions: top dose 4000 µM; top dose inferred
Description: as §1

Cell Line	AUC [1]	pIC50 [1]	AUC [2]	pIC50 [2]	AUC [3]	pIC50 [3]	AUC [4]	pIC50 [4]	AUC [5]	pIC50 [5]	AUC [6]	pIC50 [6]	AUC [7]	pIC50 [7]	AUC [8]	pIC50 [8]	AUC [9]	pIC50 [9]
H290 (mesothelioma, adherent)	0.886	5.02	0.803	7.54	0.989	< 5.30	0.963	< 6.30	0.989	< 5.00	0.969	< 5.70						
JHU-029 (head and neck, adherent)			0.457	8.53	0.973	< 5.30	0.779	6.60	0.969	< 5.00	0.977	< 5.70						
KMS-11 (myeloma, suspension)	0.94	< 4.99			0.99	< 5.30	0.949	< 6.30	0.948	< 5.00	0.967	< 5.70	0.905	< 5.29	0.951	< 4.99	0.991	< 2.40
KP-1N (pancreas, adherent)			0.558	8.24	0.979	< 5.30	0.976	< 6.30	0.982	< 5.00	0.986	< 5.70						
KYAE-1 (oesophagus, suspension)	0.809	5.22			0.935	< 5.30	0.645	7.08	0.983	< 5.00	0.895	< 5.70	0.947	< 5.29	0.883	< 4.99	0.971	< 2.40
MOLT-13 (T-cell lymphoblastic leukaemia, suspension)	0.703	5.66			0.973	< 5.30	0.842	6.54	0.954	< 5.00	0.976	< 5.70	0.944	< 5.29	0.952	< 4.99	0.95	< 2.40
NCC021 (kidney, adherent)	0.926	< 4.99			0.983	< 5.30	0.984	< 6.30	0.966	< 5.00	0.951	< 5.70	0.871	< 5.29	0.974	< 4.99	0.979	< 2.40
OACM5-1 (oesophagus, semi-adherent)	0.876	< 4.99			0.986	< 5.30	0.958	< 6.30	0.976	< 5.00	0.969	< 5.70	0.849	5.34	0.77	5.36	0.969	< 2.40
OACp4C (oesophagus, adherent)	0.904	< 4.99			0.975	< 5.30	0.935	< 6.30	0.956	< 5.00	0.948	< 5.70	0.91	< 5.29	0.6	5.89	0.906	< 2.40
OC-314 (ovary, adherent)	0.97	< 4.99			0.945	< 5.30	0.978	< 6.30	0.958	< 5.00	0.953	< 5.70	0.976	< 5.29	0.95	< 4.99	0.926	< 2.40
OV-7 (ovary, adherent)	0.853	< 4.99			0.963	< 5.30	0.868	< 6.30	0.965	< 5.00	0.879	< 5.70	0.843	< 5.29	0.902	< 4.99	0.97	< 2.40
OV-17R (ovary, adherent)	0.959	< 4.99			0.98	< 5.30	0.981	< 6.30	0.965	< 5.00	0.956	< 5.70	0.881	< 5.29	0.975	< 4.99	0.945	< 2.40
OV-56 (ovary, adherent)	0.972	< 4.99			0.976	< 5.30	0.986	< 6.30	0.985	< 5.00	0.944	< 5.70	0.929	< 5.29	0.968	< 4.99	0.989	< 2.40
OVCA420 (ovary, adherent)	0.98	< 4.99			0.982	< 5.30	0.833	6.31	0.965	< 5.00	0.961	< 5.70	0.881	< 5.29	0.905	< 4.99	0.982	< 2.40
OVCA433 (ovary, adherent)	0.979	< 4.99			0.976	< 5.30	0.948	< 6.30	0.959	< 5.00	0.951	< 5.70	0.932	< 5.29	0.964	< 4.99	0.976	< 2.40
OVK-18 (ovary, adherent)	0.963	< 4.99			0.953	< 5.30	0.965	< 6.30	0.922	< 5.00	0.907	< 5.70	0.985	< 5.29	0.911	< 4.99	0.983	< 2.40
PEO1 (ovary, adherent)	0.985	< 4.99			0.987	< 5.30	0.981	< 6.30	0.986	< 5.00	0.971	< 5.70	0.918	< 5.29	0.986	< 4.99	0.937	< 2.40
QGP-1 (pancreas, adherent)	0.968	< 4.99			0.972	< 5.30	0.979	< 6.30	0.979	< 5.00	0.965	< 5.70	0.921	< 5.29	0.97	< 4.99	0.65	3.07

Cell Line	AUC [1]	pIC50 [1]	AUC [2]	pIC50 [2]	AUC [3]	pIC50 [3]	AUC [4]	pIC50 [4]	AUC [5]	pIC50 [5]	AUC [6]	pIC50 [6]	AUC [7]	pIC50 [7]	AUC [8]	pIC50 [8]	AUC [9]	pIC50 [9]
RCC-AB (kidney, adherent)	0.863	< 4.99			0.979	< 5.30	0.981	< 6.30	0.925	< 5.00	0.921	< 5.70	0.882	< 5.29	0.893	< 4.99	0.815	2.51
RCC-ER (kidney, adherent)	0.943	< 4.99			0.986	< 5.30	0.974	< 6.30	0.979	< 5.00	0.932	< 5.70	0.985	< 5.29	0.985	< 4.99	0.948	< 2.40
RCC-FG2 (kidney, adherent)	0.944	< 4.99			0.977	< 5.30	0.92	< 6.30	0.935	< 5.00	0.837	5.72	0.93	< 5.29	0.964	< 4.99	0.959	< 2.40
RCC-JF (kidney, adherent)	0.866	< 4.99			0.931	< 5.30	0.818	6.49	0.951	< 5.00	0.915	< 5.70	0.942	< 5.29	0.872	< 4.99	0.917	< 2.40
RCC-JW (kidney, adherent)	0.81	5.25			0.985	< 5.30	0.948	< 6.30	0.962	< 5.00	0.925	< 5.70	0.941	< 5.29	0.946	< 4.99	0.97	< 2.40
RCC-MF (kidney, adherent)	0.82	5.08			0.98	< 5.30	0.859	< 6.30	0.878	< 5.00	0.89	< 5.70	0.929	< 5.29	0.864	< 4.99	0.973	< 2.40
SCC90 (head and neck, adherent)			0.734	7.60	0.981	< 5.30	0.917	< 6.30	0.978	< 5.00	0.981	< 5.70						
SK-GT-4 (oesophagus, adherent)	0.948	< 4.99			0.972	< 5.30	0.917	< 6.30	0.965	< 5.00	0.93	< 5.70	0.927	< 5.29	0.96	< 4.99	0.948	< 2.40
SK-MEL-5 (melanoma, adherent)	0.978	< 4.99			0.983	< 5.30	0.983	< 6.30	0.918	< 5.00	0.959	< 5.70	0.981	< 5.29	0.975	< 4.99	0.964	< 2.40
SK-MG-1 (glioma, adherent)	0.987	< 4.99			0.955	< 5.30	0.986	< 6.30	0.965	< 5.00	0.957	< 5.70	0.966	< 5.29	0.987	< 4.99	0.969	< 2.40
SNU-61 (large intestine, adherent)	0.943	< 4.99			0.985	< 5.30	0.915	< 6.30	0.935	< 5.00	0.985	< 5.70	0.965	< 5.29	0.956	< 4.99	0.976	< 2.40
SNU-81 (large intestine, adherent)	0.981	< 4.99			0.963	< 5.30	0.982	< 6.30	0.931	< 5.00	0.911	< 5.70	0.982	< 5.29	0.98	< 4.99	0.89	< 2.40
SNU-C5 (large intestine, adherent)	0.975	< 4.99			0.986	< 5.30	0.985	< 6.30	0.981	< 5.00	0.917	< 5.70	0.968	< 5.29	0.978	< 4.99	0.941	< 2.40
STS-0421 (soft tissue, adherent)			0.64	7.98	0.967	< 5.30	0.983	< 6.30	0.978	< 5.00	0.963	< 5.70						
TE-4 (oesophagus, adherent)	0.985	< 4.99			0.987	< 5.30	0.83	6.50	0.97	< 5.00	0.934	< 5.70	0.984	< 5.29	0.925	< 4.99	0.88	< 2.40
UWB1.289 (ovary, adherent)	0.977	< 4.99			0.969	< 5.30	0.916	< 6.30	0.958	< 5.00	0.958	< 5.70	0.866	< 5.29	0.865	< 4.99	0.945	< 2.40
YH-13 (glioma, adherent)	0.933	< 4.99			0.971	< 5.30	0.973	< 6.30	0.955	< 5.00	0.921	< 5.70	0.806	5.56	0.916	< 4.99	0.973	< 2.40

pIC50: −log10 of the molar value. IC50 is the fitted dose that halves viability relative to control wells, and lower means more sensitive; a limit (>, <) means that the fit lies beyond the doses tested. For AUC the same curve is integrated over the 256-fold range of doses and scaled to a fraction; it is 1 without any effect and falls as sensitivity rises. For some of these results: Any top dose called inferred is not printed in the source and was worked back from the curve model.
